The source of these data is publication PMC12136788.

The other results are listed elsewhere or left out.

The labels stand for the following.
B1: chr7:141441981:141441982:+_ENSG00000106028_ENST00000265304|hu_mus|hu_hu_hu_mus_False|8_38 (ssRNA)
RNA: GGGAGUUCUACAGUCCGACGAUCCUCAUGUCUUACAAACUGACGAAAUACCUGUAACACAGGUCUUCGAAACAUGGCUUCUGUUUUUCUUACAACCAGUCUAAUCUGCUUUUCCUAAAGGAAAGAAUAACCCGAGCAAAAUGACAACAGAGGAUUGAGCAUCA
B2: chr16:17038481:17038482:+_ENSMUSG00000063358_ENSMUST00000069107|mus_hu|FALSE|FALSE (ssRNA)
RNA: GGGAGUUCUACAGUCCGACGAUCCUUGUCCUGACAAAUUUAAGAUCUGUAUCCUGGCUGGAAUCUAGCAGUCUCUUCAAAAAUUAGUUCUUUGAGCUUUUCCUUAGGCAAGUCAUCCAAUUCCAUGUCGAACUUGAAUGGUGCCAACAGAGGAUUGAGCAUCA
B3: chr8:79514811:79514812:+_ENSG00000171033_ENST00000352966|hu_hu|FALSE|FALSE (ssRNA)
RNA: GGGAGUUCUACAGUCCGACGAUCCACCAAACAGACUGAAUUCAGGUGAUAUUCACAUUAAUGGAUAUUUUCAAAUGUCUCUAUAAUAAAGCAAUGGAGUCUUGAUGAAUCUGUUAGACUUAAUCAACUCAUCAACAUACAAUGCAACAGAGGAUUGAGCAUCA
B4: 107689004_107690831_804_CDS_ENSMUSG00000042590_ENSMUST00000080856|mouse|control|control (ssRNA)
RNA: GGGAGUUCUACAGUCCGACGAUCCUCCAUAUUCUUAUGAGGUUCCACAAAUCCAUUCACAGUUAACUUCCGCAGCACUUUUAACGAUAGCAGUGUUCGCUCUAGUGAACUCAGAACCGCAGCUUCAUUGCCAGAAGAAACGUGCAACAGAGGAUUGAGCAUCA
B5: chr12:42180722:42180723:-_ENSMUSG00000036295_ENSMUST00000043884|mus_hu|mus_mus_mus_hu_True|18_108 (ssRNA)
RNA: GGGAGUUCUACAGUCCGACGAUCCUGUAGGAGCAGAAUCUGUGUGUUAGCUGGCAAUCUGGCUGGGAAAGUUAAAAGACCUAAAUCAUUACAAUCCACUGUAGAUGCUUCCAUAUAGAUGGAUCUCGGUGUAAACCAAGGCCUCAACAGAGGAUUGAGCAUCA
B6: chrX:100668114:100668115:+_ENSG00000126945_ENST00000316594|hu_mus|motif|central (ssRNA)
RNA: GGGAGUUCUACAGUCCGACGAUCUCCCAUCAUCUGGCUACCGUAAGCACCACCACUUGCCCCUGCUGUAGAAUUCAAAAAGAGCUCGGCAUAGCUAUGAUCAUAAGCUCCUCCACUUGUCCCUGCGGUAGAAUUCAAGAAGAGCAACAGAGGAUUGAGCAUCA

In the experiment the target is T1, UNK ZnF1-3 (human, UniProt Q9C0B0 31-174).
T1 sequence: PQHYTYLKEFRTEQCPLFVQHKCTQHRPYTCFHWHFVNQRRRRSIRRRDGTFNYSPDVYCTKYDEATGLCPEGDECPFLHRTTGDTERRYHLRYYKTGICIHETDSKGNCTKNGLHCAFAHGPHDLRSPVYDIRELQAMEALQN
As to the kind of experiment: nsRBNS (natural sequence RNA bind-n-seq); RBNS binding buffer (assumed for nsRBNS): 25 mM Tris pH 7.5, 150 mM KCl, 3 mM MgCl2, 0.01% Triton X-100, 500 ug/ml BSA, 20 U/ml SUPERase-In, 4 C; UNK is unkempt and MSI1 is Musashi-1; names of the RNAs are library labels; protein concentration not given here; high values mean tight binding.
Regarding B1, the binding signal came out at 0.782 enrichment R.

Consider B2, for which the binding signal was 0.558 enrichment R.

B3 came in with a binding signal of 1.04 enrichment R.

For B4, the binding signal amounted to 0.733 enrichment R.

On to B5, for which the binding signal came out at 0.8 enrichment R.

Regarding B6, the binding signal was 2.07 enrichment R.
